Reference: PubChem BioAssay AID2147 (National Center for Advancing Translational Sciences (NCATS), 2009)
Screen size: about 230,000 compounds; about 3,600 (1.6%) were called active. Inconclusive results, whose numbers are uncertain, are shown with a selection of clear calls. Calls come from the whole dose curve; as a rule, active = well fitted inhibition curve with a large enough effect (not every such curve was filed as active); inconclusive = small, poorly fitted or top-dose-only effect, or another doubt; inactive = no such curve, though single readings can be large or run the other way. Where the call is inconclusive, the potency comes from a doubtful curve fit.

The compounds below were run against Lysine-specific demethylase 4E (Homo sapiens) (UniProt B2RXH2) (assay: qHTS Assay for Inhibitors of Human Jumonji Domain Containing 2E (JMJD2E)). Conditions: JMJD2E catalytic domain, FDH-coupled NADH fluorescence (FDH is formaldehyde dehydrogenase); series mostly up to 57.1 µM.
Note: nearly all actives have a fitted effect of over 50% in size.
Potency is the fitted concentration of half-maximal effect; tags give direction and shape of the fitted curve.

Sequence of UniProt B2RXH2 (B2RXH2 whole entry, looked up, the tested form may be a part): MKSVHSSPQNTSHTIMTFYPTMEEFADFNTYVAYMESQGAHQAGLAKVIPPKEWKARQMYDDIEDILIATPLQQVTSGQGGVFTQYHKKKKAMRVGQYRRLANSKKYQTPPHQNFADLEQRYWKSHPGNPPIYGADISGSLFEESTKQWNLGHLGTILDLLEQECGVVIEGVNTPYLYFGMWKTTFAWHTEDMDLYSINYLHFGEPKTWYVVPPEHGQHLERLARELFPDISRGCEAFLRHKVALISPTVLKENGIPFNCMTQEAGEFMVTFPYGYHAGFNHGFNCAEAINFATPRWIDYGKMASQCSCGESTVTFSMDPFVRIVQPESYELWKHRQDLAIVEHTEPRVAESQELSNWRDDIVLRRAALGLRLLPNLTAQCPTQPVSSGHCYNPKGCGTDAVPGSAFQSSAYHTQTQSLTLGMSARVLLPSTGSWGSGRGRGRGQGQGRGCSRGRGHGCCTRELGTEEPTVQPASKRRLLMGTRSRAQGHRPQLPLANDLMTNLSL

Compound	Potency
CC(=O)OCc1cc(-c2nc3ccccc3[nH]c2=O)nn1-c1ccc(Cl)cc1	inconclusive: 12.6 µM [inhibitor, partial curve]
CC1=C(C(=O)Nc2ccccc2)C(c2cccc([N+](=O)[O-])c2)Nc2nc3ccccc3n21 (centres undefined)	inactive
COc1cc2c(Cc3c4c5c(cc(OC)c(OC)c5c5c(OC)c(OC)ccc35)CCN4C)c3c4c(cc(OC)c(OC)c4c2cc1OC)CCN3C	inconclusive: 3.98 µM [inhibitor, full curve]
O=c1c2cnn(-c3ccccc3)c2nc(-c2cccs2)n1-c1cccc(Cl)c1	inconclusive: 25.1 µM [inhibitor, partial curve]
C/C(CCc1oc2ccccc2c1-c1ccc(C)o1)=N/O	inconclusive: 28.2 µM [inhibitor, single point]
COc1cc(/C=C/C(=O)OCC(=O)NCCC2=CCCCC2)ccc1O	inconclusive: 31.6 µM [inhibitor, single point]
CN(c1cccc(NC(=O)c2ccc(Cl)c(S(=O)(=O)Nc3ccccc3)c2)c1)S(C)(=O)=O	inconclusive: 39.8 µM [inhibitor, single point]
O=C1C(Cl)=C(N2CCCCCC2)C(=O)N1c1ccccc1	inactive
CCCc1nnc(NC(=O)C(=O)NCCN(C)C)s1	inconclusive: 39.8 µM [inhibitor, single point]
COc1cc(S(=O)(=O)N2CCCCC2)ccc1NC(=O)/C=C/c1ccccc1	inconclusive: 39.8 µM [inhibitor, single point]
COc1cc(/C=C/C(=O)OCC(=O)NC(=O)NC(C)C)cc(OC)c1OC	inconclusive: 31.6 µM [inhibitor, partial curve]
Cc1cccc(C)c1NC(=O)CCn1cnc2ccccc2c1=O	inactive
N#CC(/C(=N/S(=O)(=O)c1cccs1)c1ccccc1)c1nc2ccccc2[nH]1 (centres undefined)	inconclusive: 39.8 µM [inhibitor, single point]
O=S(=O)(c1ccccc1)N1CCN=C1SCc1ccccc1Cl	inactive
FC(F)(F)c1nc2ccccc2nc1N/N=C/c1c(Cl)cccc1Cl	inconclusive: 39.8 µM [inhibitor, single point]
CCn1c(-c2ccccc2)c(C(=O)O)c2ccccc21	inconclusive: 31.6 µM [inhibitor, partial curve]
COC(=O)N1C2(C=CC1(C)C(=O)NCc1ccc(N(C)C)cc1)CCCCC2 (centres undefined)	inactive
CSc1ccc(/C=N/N2CCN(Cc3ccccc3)CC2)cc1	active: 11.2 µM
COC(=O)C1(C)C=C(Nc2ccc(OC)cc2)C(=O)N1c1ccc(OC)cc1 (centres undefined)	inactive
Cc1cc(O)ccc1C1(c2ccc(O)cc2C)OC(=O)c2ccccc21	inactive
CCOC(=O)CSC1=Nc2ccccc2C2=NC(CC(=O)NCc3ccccc3)C(=O)N12 (centres undefined)	inconclusive: 28.2 µM [inhibitor, partial curve]
Cc1cc(C)n(CC(O)COc2cccc(OCC(O)Cn3nc(C)cc3C)c2)n1 (centres undefined)	inconclusive: 28.2 µM [inhibitor, single point]

Compound	Potency
N#C/C(=C\c1ccc(-c2ccc(C(=O)O)cc2)o1)c1nc2ccccc2[nH]1	active: 28.2 µM
CN(C)C(=O)NC(NC(=S)Nc1ccccc1)C(Cl)(Cl)Cl (centres undefined)	inactive
FC(F)(F)c1cc(-c2cccs2)nc(-n2cc(Br)cn2)n1	inconclusive: 28.2 µM [inhibitor, partial curve]
CC(C)c1ccc2c([Si](C)(C)C)c3c(nc2c1)-c1cccc(=O)n1C3	inconclusive: 28.2 µM [inhibitor, partial curve]
COC(=O)c1ccc(NC(=O)Nc2ccc(OC)c(OC)c2)cc1	inactive
CC(C)=CCC/C(C)=C/CO	inactive
CCOc1cc(/C=C2/C(=O)N(c3ccccc3)N=C2C)ccc1OC(=O)c1ccco1	inconclusive: 2.82 µM [inhibitor, single point]
S=C(NCC1CCCO1)Nc1cccc2ccccc12 (centres undefined)	inconclusive: 39.8 µM [inhibitor, single point]
Nc1cccc(-c2nc3ccc(N)cc3s2)c1	inconclusive: 28.2 µM [inhibitor, partial curve]
Cc1cc(C)n(-c2nc(SCC(=O)Nc3nccs3)c3c4c(sc3n2)COC(C)(C)C4)n1	inconclusive: 28.2 µM [inhibitor, single point]
COc1ccc(/C=C/C(=O)c2ccc(O)cc2)cc1CN1CCOCC1	inconclusive: 25.1 µM [inhibitor, single point]
COC(=O)CSc1nc(N)c2c3c(sc2n1)C(c1ccccc1)SC(c1ccccc1)C3 (centres undefined)	inconclusive: 25.1 µM [inhibitor, partial curve]
Cc1ccc2cccc(OCC(=O)N3CC(C)CC(C)C3)c2n1 (centres undefined)	inconclusive: 31.6 µM [inhibitor, partial curve]
CCCCn1c(=O)c(CCC(=O)OCC(=O)NC(=O)NCCOC)nc2ccccc21	inconclusive: 28.2 µM [inhibitor, partial curve]
C/C(=N\NC(=O)C1CC1)c1ccccc1O	inconclusive: 28.2 µM [inhibitor, single point]
COCCn1c(=NC(=O)c2nc3ccccc3s2)sc2cc(S(C)(=O)=O)ccc21	inconclusive: 6.31 µM [inhibitor, single point]
c1ccc(-c2ccc(-c3nccc4ccccc34)[nH]2)cc1	inconclusive: 28.2 µM [inhibitor, partial curve]
NC(=O)c1sc(=S)n(-c2ccc(Br)cc2)c1N	inactive
O=c1c2cc(NC(=S)N3CCC(N4CCCCC4)CC3)ccc2nc2n1CCCCC2	inconclusive: 14.1 µM [inhibitor, partial curve]
O=C(NC12CC3CC(CC(C3)C1)C2)c1ccc(-c2ccc(Cl)cc2)o1	inconclusive: 35.5 µM [inhibitor, single point]
Clc1ccccc1OCc1nnc(-c2ccccc2)o1	inconclusive: 35.5 µM [inhibitor, single point]
COc1ccc2cc(/C=N/NC(=O)c3c(Cl)cnn3C)c(Cl)nc2c1	inconclusive: 1.26 µM [inhibitor, full curve]
